Data from the supplement of paper PMC4967469.
IC50 is the fitted dose that halves viability relative to control wells, and lower means more sensitive; fits outside the tested doses are given as limits. AUC, from the same fit, is the share of area under the viability curve across the 256-fold dose range: 1 means no effect, lower means more sensitive. Any top dose called inferred comes from the curve model; the source does not state it.

Legend:
Test in all cases: Viability of human cancer cell lines after 72 h of drug (GDSC screen)
PFI-1 = compound: COc1ccccc1S(=O)(=O)Nc1ccc2c(c1)CN(C)C(=O)N2 [PFI-1]; settings: top dose 10 µM; top dose inferred
Method: (§1)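 Human cancer cell lines in 384-well plates, medium with 10% serum, drug for 72 h over a 256-fold dose range (nine 2-fold or five 4-fold steps up to the top dose). Adherent lines were fixed and stained with the nucleic acid dye Syto60, suspension lines read with resazurin; signal relative to control wells, capped at 0 and 100%. One two-parameter sigmoid per drug and line, fitted in a mixed model over all curves with the slope shared within a line.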

GSK-1904529A = compound: CCc1cc(Nc2nccc(-c3c(-c4ccc(OC)c(C(=O)Nc5c(F)cccc5F)c4)nc4ccccn34)n2)c(OC)cc1N1CCC(N2CCN(S(C)(=O)=O)CC2)CC1 [GSK-1904529A]; settings: top dose 1.024 µM; top dose inferred
Method: as §1

Tipifarnib = compound: Cn1cncc1[C@@](N)(c1ccc(Cl)cc1)c1ccc2c(c1)c(-c1cccc(Cl)c1)cc(=O)n2C [Tipifarnib]; settings: top dose 16 µM; top dose inferred
Method: as §1

NG-25 = compound: CCN1CCN(Cc2ccc(NC(=O)c3ccc(C)c(Oc4ccnc5[nH]ccc45)c3)cc2C(F)(F)F)CC1 [NG-25]; settings: top dose 10.24 µM; top dose inferred
Method: as §1

| Cell Line | AUC (PFI-1) | IC50 (PFI-1) | AUC (GSK-1904529A) | IC50 (GSK-1904529A) | AUC (Tipifarnib) | IC50 (Tipifarnib) | AUC (NG-25) | IC50 (NG-25) |
| --- | --- | --- | --- | --- | --- | --- | --- | --- |
| RO82-W-1 (thyroid, adherent) | 0.893 | > 10 µM | 0.955 | > 1.02 µM | 0.752 | 6.66 µM | 0.927 | > 10.2 µM |
| MDA-MB-453 (breast, adherent) | 0.842 | 8.17 µM | 0.963 | > 1.02 µM | 0.924 | > 16 µM | 0.872 | > 10.2 µM |
| IM-95 (stomach, adherent) | 0.959 | > 10 µM | 0.932 | > 1.02 µM | 0.432 | 0.642 µM | 0.852 | 8.77 µM |
| HT55 (large intestine, adherent) | 0.973 | > 10 µM | 0.984 | > 1.02 µM | 0.967 | > 16 µM | 0.989 | > 10.2 µM |
| OVKATE (ovary, adherent) | 0.859 | > 10 µM | 0.979 | > 1.02 µM | 0.921 | > 16 µM | 0.652 | 2.24 µM |
| 647-V (bladder, adherent) | 0.85 | 7.67 µM | 0.981 | > 1.02 µM | 0.562 | 1.48 µM | 0.91 | > 10.2 µM |
| NCI-H460 (large cell lung carcinoma, adherent) | 0.962 | > 10 µM | 0.977 | > 1.02 µM | 0.651 | 2.5 µM | 0.855 | 6.97 µM |
| ECC10 (stomach, suspension) | 0.793 | 4.81 µM | 0.952 | > 1.02 µM | 0.629 | 2.31 µM | 0.853 | 8.54 µM |
| CAL-29 (bladder, adherent) | 0.782 | 4.52 µM | 0.983 | > 1.02 µM | 0.725 | 4.62 µM | 0.885 | > 10.2 µM |
| NCI-H2170 (lung squamous cell carcinoma, adherent) | 0.967 | > 10 µM | 0.987 | > 1.02 µM | 0.771 | 6.42 µM | 0.974 | > 10.2 µM |
| Hs940-T (melanoma, adherent) | 0.919 | > 10 µM | 0.916 | > 1.02 µM | 0.696 | 4.05 µM | 0.983 | > 10.2 µM |
| NCI-H810 (large cell lung carcinoma, adherent) | 0.83 | 5.93 µM | 0.954 | > 1.02 µM | 0.594 | 1.79 µM | 0.851 | 7.34 µM |
| ASH-3 (thyroid, adherent) | 0.891 | > 10 µM | 0.986 | > 1.02 µM | 0.597 | 1.85 µM | 0.988 | > 10.2 µM |
| FADU (head and neck, adherent) | 0.843 | 6.73 µM | 0.987 | > 1.02 µM | 0.731 | 4.41 µM | 0.981 | > 10.2 µM |
| SCC-9 (head and neck, adherent) | 0.867 | > 10 µM | 0.958 | > 1.02 µM | 0.908 | > 16 µM | 0.839 | 9.95 µM |
| HCC-56 (large intestine, adherent) | 0.86 | 8.7 µM | 0.986 | > 1.02 µM | 0.828 | 10.2 µM | 0.891 | > 10.2 µM |
| Ca9-22 (head and neck, adherent) | 0.736 | 2.77 µM | 0.979 | > 1.02 µM | 0.667 | 2.8 µM | 0.904 | > 10.2 µM |
| RC-K8 (B-cell lymphoma, suspension) | 0.991 | > 10 µM | 0.992 | > 1.02 µM | 0.918 | > 16 µM | 0.921 | > 10.2 µM |
| TMK-1 (stomach, adherent) | 0.915 | > 10 µM | 0.97 | > 1.02 µM | 0.767 | 6.3 µM | 0.915 | > 10.2 µM |
| KON (head and neck, adherent) | 0.825 | 5.84 µM | 0.986 | > 1.02 µM | 0.283 | 0.247 µM | 0.987 | > 10.2 µM |
| U-118-MG (glioma, adherent) | 0.919 | > 10 µM | 0.97 | > 1.02 µM | 0.781 | 7.73 µM | 0.958 | > 10.2 µM |
| NCI-H2227 (small cell lung carcinoma, semi-adherent) | 0.825 | 7.1 µM | 0.986 | > 1.02 µM | 0.981 | > 16 µM | 0.91 | > 10.2 µM |
| KYSE-450 (oesophagus, adherent) | 0.933 | > 10 µM | 0.969 | > 1.02 µM | 0.436 | 0.674 µM | 0.896 | > 10.2 µM |
| HN (head and neck, adherent) | 0.756 | 3.22 µM | 0.974 | > 1.02 µM | 0.949 | > 16 µM | 0.989 | > 10.2 µM |
| HT-1376 (bladder, adherent) | 0.916 | > 10 µM | 0.974 | > 1.02 µM | 0.799 | 9.26 µM | 0.985 | > 10.2 µM |
| PCI-4B (head and neck, adherent) | 0.729 | 2.69 µM | 0.96 | > 1.02 µM | 0.519 | 1.12 µM | 0.887 | > 10.2 µM |
| CAL-39 (cervix, adherent) | 0.875 | > 10 µM | 0.946 | > 1.02 µM | 0.461 | 0.779 µM | 0.943 | > 10.2 µM |
| 451Lu (melanoma, adherent) | 0.836 | 6.25 µM | 0.981 | > 1.02 µM | 0.576 | 1.6 µM | 0.986 | > 10.2 µM |
| NCI-H650 (lung adenocarcinoma, adherent) | 0.857 | 9.47 µM | 0.986 | > 1.02 µM | 0.873 | > 16 µM | 0.918 | > 10.2 µM |
| MOG-G-CCM (glioma, adherent) | 0.909 | > 10 µM | 0.945 | > 1.02 µM | 0.633 | 2.48 µM | 0.768 | 4.48 µM |
